# Source: patent US20250381289A1, “EGFR AND C-MET BISPECIFIC BINDING AGENTS, CONJUGATES THEREOF AND METHODS OF USING THE SAME” (GENMAB A/S, priority 2024, published 2025)
# B1: Bsab 68: EGFR and cMET bispecific antibody; sequences of Bsab 68WT in Table 16 (protein)
# chain 1: QVQLVESGGGVVQPGRSLRLSCAASGFTFSTYGMHWVREAPGKDLEWVAVIWDDGSYKYYGDSVKGRFTISRDNSKNTLYLQMNSLRAEDTAVYYCARDGITMVRGVMKDYFDYWGQGTLVTVSSGGGGSGGGGSGGGGSGGGGSAIQLTQSPSSLSASVGDRVTITCRASQDISSALVWYQKKPGKAPKLLIYDASSLESGVPSRFSGSESGTDFTLTISSLQPEDFATYYCQQFNSYPLTFGKGTKVEIKGGGGS[omitted - human IgG1 Fc with changes]
# chain 2: QVQLVQSGAEVKKPGASVKVSCKASGYIFTAYTMHWVRQAPGQKLEWMGWIKPNNGLANYAQKFQGRVTMTRDTSISTAYMELSRLRSDDTAVYYCARSEITTEFDYWGQGTLVTVSSGGGGSGGGGSGGGGSGGGGSDIVMTQSPDSLAVSLGERATINCKSSESVDSYANSFLHWYQQKPGQPPKLLIYRASTRESGVPDRFSGSGSGTDFTLTISSLQAEDVAVYYCQQSKEDPLTFGDGTKVEIKGGGGS[omitted - human IgG1 Fc with S354C T366S L368A Y407V (EU numbers)]
# Columns and labels:
# [1] = PK of bispecific antibodies and their LD038 (8) / LD343 (8) conjugates in rats; assay type: in vivo, Sprague Dawley rats; conditions: rat PK; remark made with the efficacy results of Example 20
# Experimental: (§1) Jugular vein blood was sampled from each rat at 10 min, 4 h, 1 d, 3 d, 7 d, 14 d and 21 d post dosing. Total antibody (TAb) concentration of Bsab 6-WT and Bsab 12-WT in plasma was captured by human cMET protein and detected by goat anti-human IgG Fc (HRP), calculated using GraphPad Prism 8.0 software.
# as §1, with “Bsab 6-WT, Bsab 67-WT, Bsab 68-WT and Bsab 81-WT were intravenously administered at 3 mg/kg to male Sprague Dawley rats (n=3 per group). Jugular” for “Jugular”, “6-WT, Bsab 67-WT, Bsab 68-WT” for “6-WT”, “81-WT” for “12-WT”
# Bsab 67, Bsab 81, Bsab 67-LD038 (8), Bsab 67-LD343 (8), Bsab 81-LD038 (8) and Bsab 81-LD343 (8) were intravenously administered at 3 mg/kg to male Sprague Dawley rats (n=3 per group). Jugular vein blood was sampled from each rat at 10 min, 4 h, 1 d, 3 d, 7 d, 14 d and 21 d post dosing. Total antibody (TAb) concentration of Bsab 67, Bsab 81, Bsab 67-LD038 (8), Bsab 67-LD343 (8), Bsab 81-LD038 (8) and Bsab 81-LD343 (8) in plasma was captured by human cMET protein and detected by goat anti-human IgG Fc (HRP), calculated using GraphPad Prism 8.0 software.
# [2] = test system: EBC-1, MKN-45, SNU-5 and NCI-H1975 xenograft models; assay: In vivo efficacy of bispecific ADCs (Example 20); parameters: species or system mice; conditions: EBC-1, MKN-45, SNU-5, NCI-H1975 xenografts, single i.v. injection of conjugates; FIGS. 12A-12D
# Experimental: (§2) EBC-1 (EK-Bioscience) tumor model was established by injecting 3×10^6 cells suspended in 0.1 mL PBS. 8 days after tumor inoculation, mice with average tumor size ˜180 mm^3 were selected and assigned into 11 groups using stratified randomization (n=6 per group) based upon their tumor volumes.
# as §2, with “MKN-45 (Procell)” for “EBC-1 (EK-Bioscience)”, “5×10^6” for “3×10^6”, “PBS mixed with Matrigel (1:1). 6” for “PBS. 8”, “˜131” for “˜180”, “13” for “11”
# SNU-5 (COBIOER) tumor model was established by injecting 5×10^6 cells suspended in 0.1 mL PBS. 8 days after tumor inoculation, mice with average tumor size ˜131 mm^3 were selected and assigned into 13 groups using stratified randomization (n=6 per group) based upon their tumor volumes.
# as §2, with “NCI-H1975 (Procell)” for “EBC-1 (EK-Bioscience)”, “5×10^6” for “3×10^6”, “PBS mixed with Matrigel (1:1). 21” for “PBS. 8”, “˜199” for “˜180”
# The tumor size and body weight were measured as described before. Animal body weight was monitored as an indirect measure of tolerability. […]
molecule,measurement,setting,value
B1,PK,[1],worse PK
same,anti-tumor activity,[2],lesser activity
